# Results reported in PubChem BioAssay AID894 (National Center for Advancing Translational Sciences (NCATS), 2007).
# Several values for one entry are separate records, joined by “and”; a condition that tells them apart may be missing. Equal values may be shown once. The campaign covered roughly 150,000 compounds. About 6,500 (4.3%) were called active. The shares of active, inactive and inconclusive entries below differ from those in the screen. The call rests on the fitted dose curve; in most records, active means well fitted inhibition curve with a large enough effect (not every such curve was filed as active); inconclusive means small, poorly fitted or top-dose-only effect, or another doubt; inactive means no such curve, though single readings can be large or run the other way. A potency beside an inconclusive call is a rough fit, not a confirmed value.
# Target: 15-hydroxyprostaglandin dehydrogenase [NAD(+)] (Homo sapiens) (UniProt P15428)
# UniProt P15428, sequence (P15428 whole entry, looked up): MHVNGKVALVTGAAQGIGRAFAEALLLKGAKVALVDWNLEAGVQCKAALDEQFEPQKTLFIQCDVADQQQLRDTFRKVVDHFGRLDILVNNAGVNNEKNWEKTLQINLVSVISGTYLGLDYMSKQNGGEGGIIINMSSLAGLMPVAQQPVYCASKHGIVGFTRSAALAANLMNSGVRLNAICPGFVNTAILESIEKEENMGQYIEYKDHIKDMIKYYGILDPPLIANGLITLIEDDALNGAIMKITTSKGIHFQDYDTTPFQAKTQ
# Experiment: qHTS Assay for Inhibitors of HPGD (15-Hydroxyprostaglandin Dehydrogenase)
# Conditions: purified HPGD, NADH fluorescence kinetic, PGE2 substrate; activity change, negative = inhibition: hits give low values
# Outline: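 20 nM HPGD preincubated 15 min at room temperature with compound in 50 mM Tris-HCl pH 8, 0.01% Tween 20. Started with 1 mM NAD+ and 30 uM prostaglandin E2; NADH fluorescence (360/450 nm) read 5 times over 30-s intervals, last minus first.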
# On the % scale 0 is the no-effect control and ±100 the full control effect; potency means the concentration at half of the fitted maximal effect; tags describe the fitted curve by direction and shape.
SMILES,Potency,"activity change, negative = inhibition"
O=C(Nc1ccc2c(c1)C(=O)N(CC1CCCO1)C2=O)c1ccccc1Br (centres undefined),"inconclusive: 17.8 µM [inhibitor, partial curve]",
COc1ccc(OC)c(Nc2nc(-c3sc(NC(=O)CC(C)C)nc3C)cs2)c1,"inconclusive: 25.1 µM [inhibitor, partial curve]",
CC(C)(C)OC(=O)N[C@@H](Cc1ccccc1)c1nnc(S(=O)(=O)Cc2ccccc2)o1,active: 3.55 µM,
CCN(CC)CC(=O)n1c2c(c3ccccc31)CCCC2,,inactive: -10.2%
CC1(CC(=O)N/N=C/c2ccc(OCc3ccc(Cl)cc3Cl)cc2)OCCCO1,"inconclusive: 31.6 µM [inhibitor, partial curve]",
O=S1(=O)C=C(Sc2nc3ccccc3s2)c2ccccc21,"inconclusive: 6.31 µM [inhibitor, partial curve]",
COc1ccccc1OCCCOc1ccc(C)cc1Br,"inconclusive: 14.1 µM [inhibitor, partial curve]",
O=C(NCCc1cccs1)C1CC(c2c(Cl)cccc2Cl)=NO1 (centres undefined),active: 14.1 µM,
CC(C)CC(=O)NC(=S)Nc1ccccc1F,active: 20 µM,
OC1(c2ccccc2F)CCN(Cc2nnc(-c3ccccc3)o2)CC1,"inconclusive: 39.8 µM [inhibitor, partial curve]",
O=S(=O)(NCc1ccccc1)c1ccc2c(c1)OCCO2,"inconclusive: 39.8 µM [inhibitor, partial curve]",
O=C1ON=C(c2ccccc2)/C1=C/c1ccc(OS(=O)(=O)c2ccccc2)cc1,active: 10 µM,
Nc1c(C(=O)NCCN2CCOCC2)c2nc3ccccc3nc2n1-c1ccc2c(c1)OCO2,"inconclusive: 28.2 µM [inhibitor, partial curve]",
COCc1cc(C)nc(SCC(=O)c2ccc(O)c(O)c2)c1C#N,active: 15.8 µM,
Cc1cc(=O)oc2cc(OCC(=O)OCC(=O)Nc3ccc(C(C)C)cc3)ccc12,"inconclusive: 17.8 µM [inhibitor, partial curve]",
COc1cc(C(=O)OC(C)C(=O)N2CCc3ccccc3C2)ccc1OCC(=O)N1CCOCC1 (centres undefined),,inactive: -6.09%
CCc1cc(C(=O)N/N=C/c2c(C)[nH]c3ccccc23)cs1,,inactive: -15.2%
CCN1N=C(c2ccccc2)Cn2c1nc1ccccc12,"inconclusive: 25.1 µM [inhibitor, partial curve]",
COc1ccc(NC(=O)CN(C)S(=O)(=O)c2ccc3c(c2)CCC(=O)N3)c(OC)c1,,inactive: -5.58%
O=C(/C=C/c1ccc2c(c1)OCO2)N1CCOCC1,"inconclusive: 31.6 µM [inhibitor, partial curve]",
COc1cc2c(cc1NC(=S)Nc1cccc(C(F)(F)F)c1)oc1ccccc12,"inconclusive: 28.2 µM [inhibitor, partial curve]",
CCC(CC)C(=O)Nc1cccc(C(=O)Nc2ccc(S(=O)(=O)Nc3ccc(C)cc3)cc2)c1,,inactive: -10.6%
COc1ccc(OC)c(-n2nnnc2SCC(=O)Nc2ccc(C(=O)N3CCCCC3)cc2)c1,active: 0.355 µM,
O=C(Cc1ccc(Cl)cc1)NN1C(=O)c2ccccc2C1=O,,inactive: -0.404%
COC(=O)c1cccc(N(C(=O)c2cnccn2)C(C(=O)NC2CCCCC2)c2cn(C)nc2C)c1 (centres undefined),,inactive: -9.12%

SMILES,Potency,"activity change, negative = inhibition"
CC1CCCC(C)N1C(=O)Cc1ccccc1 (centres undefined),active: 20 µM,
O=C(CSc1nnc(Cc2cccs2)n1Cc1ccco1)Nc1ccc(Br)cc1,"inconclusive: 31.6 µM [inhibitor, partial curve, poor fit]",
Cn1c(=O)c(-c2ccccc2)nc2ccccc21,"inconclusive: 31.6 µM [inhibitor, single point]",
O=C(C1CCN(S(=O)(=O)c2cccnc2)CC1)N1CCCCC1,active: 20 µM,
Cc1ccc(C(=O)CSc2n[nH]c(C)n2)cc1,"inconclusive: 35.5 µM [inhibitor, single point]",
Cc1cc(C)c(NS(=O)(=O)c2ccc(NC(=O)/C=C/C(=O)O)cc2)c(C)c1,"inconclusive: 28.2 µM [inhibitor, partial curve, poor fit]",
CCOc1cc(C2C(C#N)=C(N)SC(N)=C2C#N)ccc1OCCN1CCOCC1,active: 22.4 µM,
CC(C)(C)n1ncc(Oc2ccccc2[N+](=O)[O-])c(Cl)c1=O,"inconclusive: 39.8 µM [inhibitor, single point]",
Cc1nn(-c2ccccc2)c(N)c1Sc1ccccc1[N+](=O)[O-],,inactive: -10.7%
FC(F)(F)c1ccc(C2[C@H]3CN(CC4CCCCC4)[C@H](c4ccccc4)C34CC2(c2ccccc2)C4)cc1 (some centres undefined),,inactive: -10.1%
Cn1cccc1C(=O)OCc1cc(Cl)cc2c1OCOC2,"inconclusive: 35.5 µM [inhibitor, single point]",
COc1ccc(-c2nc3cnc(N4CCNCC4)nc3n(CCc3ccccc3)c2=O)cc1,"inconclusive: 17.8 µM [inhibitor, partial curve]",
COc1ccc(COc2cc(-c3cccc(OC)c3)nc3ccc(NC(=O)c4ccc(C)cc4)cc23)cc1,"inconclusive: 39.8 µM [inhibitor, partial curve] and inconclusive: 22.4 µM [inhibitor, partial curve]",
Cc1cccc(-n2c(-c3csc4ccccc34)n[nH]c2=S)c1,active: 14.1 µM,
CCCCNC(=O)OCCNC(=O)NC,,inactive: 3.5%
CC1(C)CC(=O)c2c(noc2-c2ccccc2)C1,active: 22.4 µM,
CN1C(=O)/C(=C/C=C2\SCCN2C)SC1=S,,inactive: -13.2%
COc1ccc(-c2cn3cccnc3n2)cc1NC(=O)CC(C)C,"inconclusive: 31.6 µM [inhibitor, partial curve]",
Cc1cc(C(=O)Cn2nnc(-c3ccc(Cl)cc3)n2)c(C)n1CC1CCCO1 (centres undefined),"inconclusive: 17.8 µM [inhibitor, partial curve]",
CC1(C)Cc2c(C#N)c(NCC3CCCO3)nc(-c3ccco3)c2CO1 (centres undefined),"inconclusive: 20 µM [inhibitor, partial curve]",
CCN(CC)C(=O)CN(C#N)c1nc(OC)nc(N(C)C)n1,,inactive: -10.7%
OC[C@H]1NC[C@H](O)[C@@H](O)[C@H]1O,,inactive: -11.4%
N#C/C(=C\c1cc([N+](=O)[O-])c(N2CCOCC2)cc1N1CCOCC1)c1nc2ccccc2[nH]1,active: 14.1 µM,
CCN(CC)S(=O)(=O)c1ccc(Nc2nc3ccccc3n3nnnc23)cc1,,inactive: -29.5%
CCc1cc(C(=O)OC)c(NC(=O)CC2NCCNC2=O)s1 (centres undefined),,inactive: -17.8%

SMILES,Potency,"activity change, negative = inhibition"
N#Cc1c2nc3ccccc3nc2n2cc(NC(=O)c3ccc(F)cc3)ccc12,"inconclusive: 31.6 µM [inhibitor, partial curve]",
COc1ccc2[nH]c(=O)c(CN(Cc3ccco3)Cc3nnnn3Cc3ccccc3)cc2c1,"inconclusive: 6.31 µM [inhibitor, full curve, poor fit]",
O=C(NNC1=NCCCCC1)c1ccccc1,active: 14.1 µM,
S=C(NCc1ccco1)Nc1ccc(Cl)cc1Cl,active: 28.2 µM,
CCN(CC)Cc1c(O)ccc2c(C)c(CC(=O)OC)c(=O)oc12,"inconclusive: 3.16 µM [inhibitor, partial curve]",
Cc1ccc2cc(CCNC(=O)c3cccs3)c(=O)[nH]c2c1,"inconclusive: 8.91 µM [inhibitor, partial curve]",
CCN(Cc1ccccc1)C(=O)c1cc2c(=O)oc3ccc(C)cc3c2s1,"inconclusive: 31.6 µM [inhibitor, partial curve]",
CCOC(=O)c1c(-c2ccc(OC)cc2)csc1NC(=O)CNCc1ccco1,"inconclusive: 25.1 µM [inhibitor, partial curve]",
CC(C)OC(=O)c1cn(-c2ccccc2)nc1-c1ccc2c(c1)OCCO2,"inconclusive: 20 µM [inhibitor, partial curve]",
COc1cccc(CNc2ccc(N3CCCCC3)cc2)c1OC,,inactive: -13.5%
CCc1ccccc1OCCCOc1ccc(OC)cc1,"inconclusive: 39.8 µM [inhibitor, single point]",
Nc1nc(SCC(=O)NCc2ccccc2)n[nH]1,,inactive: -15.9%
CNC(=S)N(Cc1cccs1)Cc1cc2cc(OC)c(OC)cc2[nH]c1=O,"inconclusive: 31.6 µM [inhibitor, partial curve]",
COc1cc(C)ccc1OCCCOc1ccccc1Br,"inconclusive: 28.2 µM [inhibitor, single point]",
CCOC(=O)c1sc(-c2ccccc2)cc1NC(=O)c1ccc(S(=O)(=O)N(CCOC)CCOC)cc1,"inconclusive: 25.1 µM [inhibitor, partial curve]",
COc1cc2ncnc(Nc3ccc(F)c(Cl)c3)c2cc1OCCCN1CCOCC1,,inactive: -11.8%
O=C(CCCN1C(=O)c2ccccc2C1=O)NCCN1C(=O)S/C(=C\c2cccs2)C1=O,,inactive: -17.8%
CCOC(=O)c1ccc(N2C(=O)CC(N3CCC(C(N)=O)(N4CCCCC4)CC3)C2=O)cc1 (centres undefined),,inactive: -13%
CN(C)S(=O)(=O)c1ccc(-c2ccccc2)cc1,,inactive: -8.79%
COc1ccc(-c2n[nH]c(C)c2-c2cc(OC)ccc2O)cc1,,inactive: -19.6%
S=c1[nH]nc(-c2ccc3ccccc3n2)n1Cc1ccccc1,active: 11.2 µM,
Cc1cccc2c1[nH]c1nc(N/N=C\c3ccco3)nnc12,,inactive: -7.46%
c1ccc(CCc2nn3c(C4COc5ccccc5O4)nnc3s2)cc1 (centres undefined),active: 10 µM,
O=c1cc(C(F)(F)F)[nH]c2c(C(F)(F)F)cccc12,"inconclusive: 22.4 µM [inhibitor, partial curve]",
